# Reference: PubChem BioAssay (NCATS)
# Inconclusive means that the source gave no clear call. Such entries were picked first, then a sample of the others. A potency beside an inconclusive call is a rough fit, not a confirmed value. For part of these data: A note “side channel” means that the fit belongs to a control or component signal, not to the main read-out. Active and inactive are the calls of the source. Unless noted, the call rests on the fitted dose curve; in most records, active means well fitted activation curve with a large enough effect in the main read-out, with a control signal flat (not every such curve was filed as active); inconclusive means small, poorly fitted or top-dose-only effect, or effect the other way, or a change in a side signal; inactive means flat fitted curve, though single readings scatter.
# Biological target: 3',5'-cyclic-AMP phosphodiesterase 4B (Homo sapiens) (UniProt Q07343)
# Sequence of UniProt Q07343 (Q07343 whole entry, looked up): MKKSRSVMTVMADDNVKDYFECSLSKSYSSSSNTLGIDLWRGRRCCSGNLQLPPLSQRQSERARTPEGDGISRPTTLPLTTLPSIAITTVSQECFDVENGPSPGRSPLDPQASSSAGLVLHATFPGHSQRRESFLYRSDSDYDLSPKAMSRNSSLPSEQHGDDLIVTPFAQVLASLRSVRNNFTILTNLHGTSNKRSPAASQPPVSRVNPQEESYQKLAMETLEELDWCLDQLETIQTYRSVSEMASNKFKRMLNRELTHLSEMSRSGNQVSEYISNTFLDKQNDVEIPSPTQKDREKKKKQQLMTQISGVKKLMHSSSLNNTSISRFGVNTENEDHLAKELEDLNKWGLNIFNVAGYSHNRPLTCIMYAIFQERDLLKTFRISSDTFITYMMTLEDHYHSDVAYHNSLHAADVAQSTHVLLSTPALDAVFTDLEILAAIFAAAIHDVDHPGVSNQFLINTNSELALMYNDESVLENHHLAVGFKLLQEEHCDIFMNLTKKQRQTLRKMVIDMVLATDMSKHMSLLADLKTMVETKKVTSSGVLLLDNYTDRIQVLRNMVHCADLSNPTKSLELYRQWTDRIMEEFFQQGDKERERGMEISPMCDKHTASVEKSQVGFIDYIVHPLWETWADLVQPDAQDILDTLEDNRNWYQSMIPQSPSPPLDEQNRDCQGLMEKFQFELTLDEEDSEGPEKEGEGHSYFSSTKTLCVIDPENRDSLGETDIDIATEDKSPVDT
# Test: qHTS Assay for Inhibitors of PDE-IV (AID 607)
# Settings: HEK293 ACTOne CNG channel cells, membrane potential fluorescence; activation (PDE inhibition): at 22.9 µM (top of the series)
# How it was run: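 The readout is membrane depolarisation from a cAMP-sensing CNG channel, detected with a potential dye at ex 535/em 590. Cells were HEK293-derived (endogenous PDE-IV) at 1000 cells/well, titrated up to 22.9 uM final.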
# Potency means the concentration at half of the fitted maximal effect; tags describe the fitted curve by direction and shape or compound fluorescence and quenching.
row,Compound,Potency
1,COc1ccc(CNc2ncnc3ccc(-c4ccccc4OC)cc23)c(OC)c1,"inconclusive: 12.6 µM [rising, single point]"
2,CN1CCN(c2nc(-c3cccc(C#N)c3)nc3ccccc23)CC1,"inconclusive: 10 µM [activator, partial curve]"
3,COc1ccc(-n2c(=O)c(C)nc3cnc(N4CCNCC4)nc32)cc1,"inconclusive: 2 µM [activator, single point]"
4,COCCn1c(=O)c(-c2ccccc2)nc2cnc(Oc3ccc(OC)cc3)nc21,"inconclusive: 1 µM [activator, full curve]"
5,Cc1ccccc1-c1nccc(Nc2ccc(F)cc2)n1,"inconclusive: 10 µM [activator, partial curve]"
6,N#CCCn1c(=O)c(-c2ccc(Cl)cc2)nc2cnc(OCc3ccccc3)nc21,"inconclusive: 2.51 µM [activator, single point]"

# System: not listed separately
# Test: qHTS Assay for Identification of Small Molecule Agonists for Hypoxia Response Element Signaling Pathway (AID 914; active means well fitted activation curve with a large enough effect in the signal ratio, with a control signal flat, not every such curve was filed as active; inconclusive means small, poorly fitted or top-dose-only effect, or effect the other way, or a change in a side signal; the % refers to the signal ratio; on activation: top concentration of the series differs between compounds; % of control where 0% means no effect)
# Settings: ME-180 (cervical carcinoma) HRE-bla reporter, beta-lactamase ratio, CoCl2, 17 h; activation: active compounds read high
# How it was run: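 HRE-bla ME-180 cells, overnight plating in Opti-MEM with 0.5% dialyzed FBS; cpd titration + EC50 CoCl2, 17 h, 37 degrees Celsius; CCF4 2.5 h RT; 460/530 nm ratio; AC50.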
Compound,Potency,activation
COCCn1c(=O)c(-c2cc(F)cc(F)c2)nc2cnc(N3CCNCC3)nc21,"inconclusive: 3.98 µM [fluorescent, side channel, single point]",–
FC(F)(F)c1ccccc1-c1nc(NC2CCNCC2)c2ccccc2n1,–,inconclusive: 7.29%
COc1ccc(-n2c(=O)c(-c3ccccc3)nc3cnc(N4CCNCC4)nc32)cc1,active: 3.16 µM,–
COc1ccc(-n2c(=O)c(C)nc3cnc(N4CCNCC4)nc32)cc1,–,inconclusive: 24.9%
O=c1c(-c2cc(F)cc(F)c2)nc2cnc(N3CCNCC3)nc2n1-c1ccccc1,"inconclusive: 3.16 µM [fluorescent, side channel]",–
Cc1ccccc1-c1nccc(Nc2ccc(F)cc2)n1,–,inconclusive: 29.2%
COCCn1c(=O)c(-c2ccccc2)nc2cnc(N3CCNCC3)nc21,active: 3.16 µM,–
O=c1c(-c2ccc(F)cc2)nc2cnc(N3CCNCC3)nc2n1-c1ccccc1,"inconclusive: 3.16 µM [fluorescent, partial curve]",–
N#CCCn1c(=O)c(-c2ccc(Cl)cc2)nc2cnc(OCc3ccccc3)nc21,"inconclusive: 3.98 µM [activator, single point]",–
